Some of the results follow. The list includes weakly bound sequences.
target: T1, MBP-FoxP3dN (UniProt Q99JB6); test: PD-seq (MBP pull-down with sequencing); conditions: 20 mM Tris-HCl pH 7.5, 100 mM NaCl, 1.5 mM MgCl2, 0.4 uM protein, 0.1 uM dsDNA library, 30 min, room temperature, amylose pull-down; high values mean tight binding; double strand, one strand shown
T1 sequence: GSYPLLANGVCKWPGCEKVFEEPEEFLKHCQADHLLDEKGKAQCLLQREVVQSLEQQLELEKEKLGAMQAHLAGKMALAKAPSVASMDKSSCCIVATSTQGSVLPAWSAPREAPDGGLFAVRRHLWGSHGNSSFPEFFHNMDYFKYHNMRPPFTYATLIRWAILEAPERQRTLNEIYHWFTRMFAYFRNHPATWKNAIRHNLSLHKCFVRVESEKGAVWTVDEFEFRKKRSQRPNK

| Sequence | binding signal (RPM ratio (pull-down/input)) |
| --- | --- |
| GATGATTGTTCTCCCAGCTGATGAATTTAACCATTCGAGTAAACAAATTTTCCTAATCTTTCTGTTCAAGCGCCATCTAC | 0.385 |
| GATGATTGTTCTCCCAGCTGATGAATTAATGACTTCGAGTAAACAAATTTTCCTAATCTTTCTGTTCAAGCGCCATCTAC | 0.595 |
| GATGATTGTTCTCCCAGCTGATGAATTTCGATGATCGAGTAAACAAATTTTCCTAATCTTTCTGTTCAAGCGCCATCTAC | 0.815 |
| GATGATTGTTCTCCCAGCTGATGAATTACATCAGTCGAGTAAACAAATTTTCCTAATCTTTCTGTTCAAGCGCCATCTAC | 0.493 |
| GATGATTGTTCTCCCAGCTGATGAATTCATAGAATCGAGTAAACAAATTTTCCTAATCTTTCTGTTCAAGCGCCATCTAC | 0.24 |
| GATGATTGTTCTCCCAGCTGATGAATTGTACTTGTCGAGTAAACAAATTTTCCTAATCTTTCTGTTCAAGCGCCATCTAC | 0.999 |
| GATGATTGTTCTCCCAGCTGATGAATTCGTAACCTCGAGTAAACAAATTTTCCTAATCTTTCTGTTCAAGCGCCATCTAC | 0.515 |
| GATGATTGTTCTCCCAGCTGATGAATTCTGTGCGTCGAGTAAACAAATTTTCCTAATCTTTCTGTTCAAGCGCCATCTAC | 1.02 |
| GATGATTGTTCTCCCAGCTGATGAATTCGTCATGTCGAGTAAACAAATTTTCCTAATCTTTCTGTTCAAGCGCCATCTAC | 1.92 |
| GATGATTGTTCTCCCAGCTGATGAATTCGGATCTTCGAGTAAACAAATTTTCCTAATCTTTCTGTTCAAGCGCCATCTAC | 0.294 |
| GATGATTGTTCTCCCAGCTGATGAATTGATTCCCTCGAGTAAACAAATTTTCCTAATCTTTCTGTTCAAGCGCCATCTAC | 0.419 |
| GATGATTGTTCTCCCAGCTGATGAATTTGGACAGTCGAGTAAACAAATTTTCCTAATCTTTCTGTTCAAGCGCCATCTAC | 0.347 |
| GATGATTGTTCTCCCAGCTGATGAATTGCCGGGGTCGAGTAAACAAATTTTCCTAATCTTTCTGTTCAAGCGCCATCTAC | 0.381 |
| GATGATTGTTCTCCCAGCTGATGAATTCCAGCAGTCGAGTAAACAAATTTTCCTAATCTTTCTGTTCAAGCGCCATCTAC | 0.31 |
| GATGATTGTTCTCCCAGCTGATGAATTGTTCGACTCGAGTAAACAAATTTTCCTAATCTTTCTGTTCAAGCGCCATCTAC | 0.414 |
| GATGATTGTTCTCCCAGCTGATGAATTCGAAGGTTCGAGTAAACAAATTTTCCTAATCTTTCTGTTCAAGCGCCATCTAC | 0.327 |
| GATGATTGTTCTCCCAGCTGATGAATTGCTTGGCTCGAGTAAACAAATTTTCCTAATCTTTCTGTTCAAGCGCCATCTAC | 0.655 |
| GATGATTGTTCTCCCAGCTGATGAATTTTCAACTTCGAGTAAACAAATTTTCCTAATCTTTCTGTTCAAGCGCCATCTAC | 0.307 |
| GATGATTGTTCTCCCAGCTGATGAATTTCACTTTTCGAGTAAACAAATTTTCCTAATCTTTCTGTTCAAGCGCCATCTAC | 0.374 |
| GATGATTGTTCTCCCAGCTGATGAATTACGATTATCGAGTAAACAAATTTTCCTAATCTTTCTGTTCAAGCGCCATCTAC | 1.47 |

| Sequence | binding signal (RPM ratio (pull-down/input)) |
| --- | --- |
| GATGATTGTTCTCCCAGCTGATGAATTTGATGTTTCGAGTAAACAAATTTTCCTAATCTTTCTGTTCAAGCGCCATCTAC | 5.38 |
| GATGATTGTTCTCCCAGCTGATGAATTTGACGTGTCGAGTAAACAAATTTTCCTAATCTTTCTGTTCAAGCGCCATCTAC | 1.63 |
| GATGATTGTTCTCCCAGCTGATGAATTCAGCTAGTCGAGTAAACAAATTTTCCTAATCTTTCTGTTCAAGCGCCATCTAC | 1 |
| GATGATTGTTCTCCCAGCTGATGAATTGCCCGCATCGAGTAAACAAATTTTCCTAATCTTTCTGTTCAAGCGCCATCTAC | 1.19 |
| GATGATTGTTCTCCCAGCTGATGAATTGATGCCGTCGAGTAAACAAATTTTCCTAATCTTTCTGTTCAAGCGCCATCTAC | 2.25 |
| GATGATTGTTCTCCCAGCTGATGAATTTGAACCATCGAGTAAACAAATTTTCCTAATCTTTCTGTTCAAGCGCCATCTAC | 0.355 |
| GATGATTGTTCTCCCAGCTGATGAATTGTTACCTTCGAGTAAACAAATTTTCCTAATCTTTCTGTTCAAGCGCCATCTAC | 0.786 |
| GATGATTGTTCTCCCAGCTGATGAATTATAAATCTCGAGTAAACAAATTTTCCTAATCTTTCTGTTCAAGCGCCATCTAC | 0.432 |
| GATGATTGTTCTCCCAGCTGATGAATTCTTCCGGTCGAGTAAACAAATTTTCCTAATCTTTCTGTTCAAGCGCCATCTAC | 0.162 |
| GATGATTGTTCTCCCAGCTGATGAATTACATTGGTCGAGTAAACAAATTTTCCTAATCTTTCTGTTCAAGCGCCATCTAC | 0.839 |
| GATGATTGTTCTCCCAGCTGATGAATTCTACCGGTCGAGTAAACAAATTTTCCTAATCTTTCTGTTCAAGCGCCATCTAC | 0.227 |
| GATGATTGTTCTCCCAGCTGATGAATTAGTCCGGTCGAGTAAACAAATTTTCCTAATCTTTCTGTTCAAGCGCCATCTAC | 0.251 |
| GATGATTGTTCTCCCAGCTGATGAATTCAGTTAATCGAGTAAACAAATTTTCCTAATCTTTCTGTTCAAGCGCCATCTAC | 0.432 |
| GATGATTGTTCTCCCAGCTGATGAATTCAATTAATCGAGTAAACAAATTTTCCTAATCTTTCTGTTCAAGCGCCATCTAC | 0.37 |
| GATGATTGTTCTCCCAGCTGATGAATTTTCTTTGTCGAGTAAACAAATTTTCCTAATCTTTCTGTTCAAGCGCCATCTAC | 1.15 |
| GATGATTGTTCTCCCAGCTGATGAATTCTAACAGTCGAGTAAACAAATTTTCCTAATCTTTCTGTTCAAGCGCCATCTAC | 0.317 |
| GATGATTGTTCTCCCAGCTGATGAATTCATAACATCGAGTAAACAAATTTTCCTAATCTTTCTGTTCAAGCGCCATCTAC | 1.5 |
| GATGATTGTTCTCCCAGCTGATGAATTGCACGGTTCGAGTAAACAAATTTTCCTAATCTTTCTGTTCAAGCGCCATCTAC | 0.772 |
| GATGATTGTTCTCCCAGCTGATGAATTTATTCATTCGAGTAAACAAATTTTCCTAATCTTTCTGTTCAAGCGCCATCTAC | 0.689 |
| GATGATTGTTCTCCCAGCTGATGAATTATGTACATCGAGTAAACAAATTTTCCTAATCTTTCTGTTCAAGCGCCATCTAC | 1.67 |

Reference: paper PMC12820563
